Source: paper PMC3102714, “OsSpo11-4, a Rice Homologue of the Archaeal TopVIA Protein, Mediates Double-Strand DNA Cleavage and Interacts with OsTopVIB” (PLoS ONE, 2011)
Results are given in words; binding and its absence hold for the method and conditions named. For part of these data: In cells and extracts the contact can be indirect. Some binding calls cover weakened binding; strength is not graded here. Where a sequence is shown, tags or fusion partners need not be part of it.

T1: OsTopVIB (yeast two-hybrid fusion) (Oryza sativa L. ssp. japonica) (UniProt Q6H442)
T1 sequence: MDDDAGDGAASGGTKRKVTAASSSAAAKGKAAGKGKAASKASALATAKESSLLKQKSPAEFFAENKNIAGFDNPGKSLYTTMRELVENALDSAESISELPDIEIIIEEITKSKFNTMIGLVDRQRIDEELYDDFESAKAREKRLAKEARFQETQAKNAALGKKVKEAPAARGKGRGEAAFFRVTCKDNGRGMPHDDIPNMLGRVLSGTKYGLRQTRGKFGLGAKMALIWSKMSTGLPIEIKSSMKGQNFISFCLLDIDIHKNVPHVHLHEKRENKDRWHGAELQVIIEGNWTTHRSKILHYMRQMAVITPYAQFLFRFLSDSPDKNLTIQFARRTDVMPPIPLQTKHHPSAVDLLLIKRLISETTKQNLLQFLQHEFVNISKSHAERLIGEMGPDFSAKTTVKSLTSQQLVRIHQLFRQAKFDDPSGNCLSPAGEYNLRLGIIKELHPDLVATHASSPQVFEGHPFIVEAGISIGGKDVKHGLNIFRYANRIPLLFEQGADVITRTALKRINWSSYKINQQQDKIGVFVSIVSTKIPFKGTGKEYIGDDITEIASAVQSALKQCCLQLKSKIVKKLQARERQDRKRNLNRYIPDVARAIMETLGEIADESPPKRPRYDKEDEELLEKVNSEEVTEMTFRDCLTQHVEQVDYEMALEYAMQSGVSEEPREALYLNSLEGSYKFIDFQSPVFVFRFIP

T2: GST-OsTopVIB fusion protein (Oryza sativa L. ssp. japonica, UniProt Q6H442 1-696)
T2 construct: OsTopVIB, Oryza sativa L. ssp. japonica; ORF amplified with primers P17 and P18, cloned BamHI/BglII into pESP-2; fusion about 103 kD; also called OsTopVIB-GST fusion; GST-TopVIB
T2 sequence (looked up): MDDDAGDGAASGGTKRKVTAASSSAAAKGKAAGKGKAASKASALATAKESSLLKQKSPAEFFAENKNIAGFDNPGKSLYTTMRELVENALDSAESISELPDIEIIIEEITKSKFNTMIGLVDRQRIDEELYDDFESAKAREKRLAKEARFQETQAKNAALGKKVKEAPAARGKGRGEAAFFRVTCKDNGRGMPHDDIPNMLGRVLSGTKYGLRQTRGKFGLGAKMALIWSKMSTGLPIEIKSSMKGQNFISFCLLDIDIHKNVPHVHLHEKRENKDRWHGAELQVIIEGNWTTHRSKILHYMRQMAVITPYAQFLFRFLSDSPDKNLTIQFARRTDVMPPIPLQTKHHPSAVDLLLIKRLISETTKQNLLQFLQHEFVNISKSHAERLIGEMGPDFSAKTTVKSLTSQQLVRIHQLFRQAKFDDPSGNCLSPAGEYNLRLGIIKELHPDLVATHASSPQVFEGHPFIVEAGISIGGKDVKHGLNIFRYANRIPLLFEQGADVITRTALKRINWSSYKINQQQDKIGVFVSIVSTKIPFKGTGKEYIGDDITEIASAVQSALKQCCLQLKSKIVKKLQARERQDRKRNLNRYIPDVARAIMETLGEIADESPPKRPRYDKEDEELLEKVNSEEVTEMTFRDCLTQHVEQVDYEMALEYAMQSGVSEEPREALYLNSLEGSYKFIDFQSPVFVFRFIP

B1: OsSpo11-4 (yeast two-hybrid fusion) (protein, UniProt Q2QM00 1-487)
chain: MDDSTDDDSYHPRKHYAYDRQVSSSRWRTSREYIRGPGPETHTTESAQDGQDPPAGVYSYGYFSGSGNDPQVQGHFVPEIQKYNPYVIFKGEQLPVPIWELPEEKVQDFHDRYFIAKDKSRVEARKTLNRLLEGNINTIERGHGYKFNIPKYTDNMEFNEEVKVSLAKAGKTISRSFCNANQREVASRTGYTIDLIERTLGAGLNISKRTVLYTNKDLFGDQSKSDQAINDICALTNIRRGSLGIIAAEKGIVVGNIFLELTNGKSISCSIGVQIPHRLDQIKDVCVEIGSRNIEYILVVEKHTMLNYLLEMDYHTNNNCIILTGCGMPTLQTRDFLRFLKQRTGLPVFGLCDPDPEGISILATYARGSCNSAYDNFNISVPSICWVGLSSSDMIKLNLSETNYSRLSREDKTMLKNLWQDDLSDVWKRRIEEMISFDKKASFEAIHSLGFDYFATNLLPDMINKVREGYVQVQEKKEPQDTEASED
B2: OsTopVIB (yeast two-hybrid fusion) (protein, UniProt Q6H442 1-696)
chain: MDDDAGDGAASGGTKRKVTAASSSAAAKGKAAGKGKAASKASALATAKESSLLKQKSPAEFFAENKNIAGFDNPGKSLYTTMRELVENALDSAESISELPDIEIIIEEITKSKFNTMIGLVDRQRIDEELYDDFESAKAREKRLAKEARFQETQAKNAALGKKVKEAPAARGKGRGEAAFFRVTCKDNGRGMPHDDIPNMLGRVLSGTKYGLRQTRGKFGLGAKMALIWSKMSTGLPIEIKSSMKGQNFISFCLLDIDIHKNVPHVHLHEKRENKDRWHGAELQVIIEGNWTTHRSKILHYMRQMAVITPYAQFLFRFLSDSPDKNLTIQFARRTDVMPPIPLQTKHHPSAVDLLLIKRLISETTKQNLLQFLQHEFVNISKSHAERLIGEMGPDFSAKTTVKSLTSQQLVRIHQLFRQAKFDDPSGNCLSPAGEYNLRLGIIKELHPDLVATHASSPQVFEGHPFIVEAGISIGGKDVKHGLNIFRYANRIPLLFEQGADVITRTALKRINWSSYKINQQQDKIGVFVSIVSTKIPFKGTGKEYIGDDITEIASAVQSALKQCCLQLKSKIVKKLQARERQDRKRNLNRYIPDVARAIMETLGEIADESPPKRPRYDKEDEELLEKVNSEEVTEMTFRDCLTQHVEQVDYEMALEYAMQSGVSEEPREALYLNSLEGSYKFIDFQSPVFVFRFIP
B3: OsSpo11-4 from rice flowers at the male meiosis stage (protein, UniProt Q2QM00 1-487)
chain: MDDSTDDDSYHPRKHYAYDRQVSSSRWRTSREYIRGPGPETHTTESAQDGQDPPAGVYSYGYFSGSGNDPQVQGHFVPEIQKYNPYVIFKGEQLPVPIWELPEEKVQDFHDRYFIAKDKSRVEARKTLNRLLEGNINTIERGHGYKFNIPKYTDNMEFNEEVKVSLAKAGKTISRSFCNANQREVASRTGYTIDLIERTLGAGLNISKRTVLYTNKDLFGDQSKSDQAINDICALTNIRRGSLGIIAAEKGIVVGNIFLELTNGKSISCSIGVQIPHRLDQIKDVCVEIGSRNIEYILVVEKHTMLNYLLEMDYHTNNNCIILTGCGMPTLQTRDFLRFLKQRTGLPVFGLCDPDPEGISILATYARGSCNSAYDNFNISVPSICWVGLSSSDMIKLNLSETNYSRLSREDKTMLKNLWQDDLSDVWKRRIEEMISFDKKASFEAIHSLGFDYFATNLLPDMINKVREGYVQVQEKKEPQDTEASED
B4: OsSpo11-1 (yeast two-hybrid fusion) (protein, UniProt Q7Y021 1-381)
chain: MAGREKRRRVAALDGEERRRRQEEAATLLHRIRGLVRWVVAEVAAGRSPTVALHRYQNYCSSASAAAASPCACSYDVPVGTDVLSLLHRGSHASRLNVLLRVLLVVQQLLQQNKHCSKRDIYYMYPSIFQEQAVVDRAINDICVLFKCSRHNLNVVPVAKGLVMGWIRFLEGEKEVYCVTNVNAAFSIPVSIEAIKDVVSVADYILIVEKETVFQRLANDKFCERNRCIVITGRGYPDIPTRRFLRYLVEQLHLPVYCLVDADPYGFDILATYKFGSLQLAYDANFLRVPDIRWLGVFTSDFEDYRLPDCCLLHLSSEDRRKAEGILSRCYLHREAPQWRLELEAMLQKGVKFEIEALSACSISFLSEEYIPKKIKQGRHI

Legend:
[1] = target: T1, OsTopVIB (yeast two-hybrid fusion) (Oryza sativa L. ssp. japonica); assay: two-hybrid; … GAL4 Two-hybrid System 3; AD (pGADT7) and BD (pGBKT7) fusions co-transformed into yeast AH109; growth on QDO medium, then colony-lift filter assay with X-gal staining for 7 h
[2] = target: OsSpo11-4 (yeast two-hybrid fusion) (Oryza sativa L. ssp. japonica) (UniProt Q2QM00); assay: as above
[3] = target: T2, GST-OsTopVIB fusion protein; assay: pull-down; GST-OsTopVIB or GST preabsorbed to Glutathione Sepharose 4B resin, incubated with protein extracts of rice flowers at the meiosis stage, 4°C, 6 h; washed with 0.5% NP-40 lysis buffer; western blot with antibody against OsSpo11-4; only the target purified
[4] = target: OsSpo11-1 (yeast two-hybrid fusion) (Oryza sativa L. ssp. japonica) (UniProt Q7Y021); assay: two-hybrid; … GAL4 Two-hybrid System 3; AD (pGADT7) and BD (pGBKT7) fusions co-transformed into yeast AH109; growth on QDO medium, then colony-lift filter assay with X-gal staining for 7 h

Row | Binder | binding [1] | binding [2] | binding [3] | binding [4]
1 | B1 | binds | binds |  | 
2 | B2 | binds |  |  | 
3 | B3 |  |  | binds | 
4 | B4 | no binding |  |  | no binding
